Laboratory results published in the supplement of paper PMC11417369.
This is one part of the list.

Test system: PfHDP1 homeodomain (GST-tagged)
Assay: gcPBM binding intensity (ln(normalized median fluorescence intensity)); higher = stronger DNA binding
Outline: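 DNA-binding domains from P. falciparum, fused to GST and produced in E. coli, were put on an Agilent 4 × 180k double-stranded probe array for 1 h in 1× PBS holding 1% milk, 0.2 mg/ml BSA, 0.5% salmon testes DNA and 0.03% Triton X-100. Probes were primer-extended, 36 bp long and drawn from intergenic genomic regions, with negative controls included. After Alexa488 anti-GST antibody detection and a 488 nm scan, binding intensity was set as the highest Masliner-normalised natural-log median intensity across replicate spots of either probe orientation.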

Sequence	gcPBM binding intensity (ln)
ACATGTAAATGGAAAAGTACTAATAACTTGTATTGG [XGTACX_site5181]	6.39
ATTATTTGTTTAAATTCACACACGTATATATATTTA [CACACA_site3050]	6.68
ATATATAAATATATTACACACTTTTTCTTTTTTTTT [CACACA_site7332]	6.54
TAATTATTAAAACATTGTACATTATTATAAACAATT [XGTACX_site4489]	6.33
TTATTTTAATATAAAATACACACTACTATTATAAAT [CACACA_site1470]	6.31
TATTACATACAATATTGTACATATCATATTTTGAAT [XGTACX_site2191]	6.69
TATATATATATTATCACACACTCACGTTTGACAAAA [CACACA_site689]	8.36
TTATTTATTTATTCATGTACGTGTATTTTTTAAAAA [XGTACX_site7915]	6.9
TAATAAATACAAAAATGTACACACATATATATATTT [XGTACX_site7430]	6.23
AGTGTCATATTAACACGTACATAATTATTGTAGAGA [XGTACX_site568]	6.8
ATTGGGTACAAATACACACACATATATATATTAAGA [CACACA_site5330]	6.84
ATATTTACCTTTGTATGTACATATATAAAATATATC [XGTACX_site6367]	6.61
TTTTGTAAAAAGAAAAATTAGAATATATCGTATATA [XGTACX_negctrl_site617]	6.03
AAAGAAAAATTAACATGTACAAAAATTACTTGTTCA [XGTACX_site6725]	5.93
GTATTTTTACAAATTTGTACATATATATGAATATAC [XGTACX_site6717]	7.48
GTATATAAATATATATATATATATATATCTATATTT [CACACA_negctrl_site871]	6.68
TCTGAAACAAGAAAAAGTACACAAATTACAAAACTA [XGTACX_site7641]	6.56
AAAAAAAATTCACACTGTACAAAAGCATAAATAAAC [XGTACX_site5408]	6.89
TATAAATATTTATAAACACACAAATATATATATTTA [CACACA_site27]	6.61
TTATATATATAGAAGTGTACAAAATTTCCTAGACCT [XGTACX_site3900]	6.55
GCACGCTGTATGAATGCACACATTCATAGAATTGCT [CACACA_site8852]	9.48
ATCAAAATGTTAAAGATACACACCTAACAAACACAA [CACACA_site955]	7

Sequence	gcPBM binding intensity (ln)
TATCGACATTTCATTTGTACATATATACATATATTT [XGTACX_site3346]	6.48
CCAATAATATATAGAAGTACAGAAAAAAAAAAAAAA [XGTACX_site2049]	6.47
AAGAAAATTAAATTAACACACATAAATATGTAAATA [CACACA_site6882]	5.88
CCCTCTTCTCTCATATCACACATGTCATCCTTATCC [CACACA_site5078]	7.18
TTTTGTTTGTTCGTGACTACATTATGTTGTAAATAC [CACACA_negctrl_site604]	6.84
AAAGGTAAGCAGAATAGTACAGAAGAAAAAATATTT [XGTACX_site2941]	6.8
TATCCTATAAATAATACATGCATATATATATATATT [TGCATGCA_site638]	6.6
ATCAAAAAAAAAAAATTTTTTTTTTTGTTTGTTTCC [CACACA_negctrl_site1042]	5.95
CAACATTTGAGACACACACACATACAAACAAACAAA [CACACA_site7538]	6.87
AAATAGTATATAATATGTACATACATAAAAATGTAT [XGTACX_site3524]	6.39
ACCTATGTATATTATACACACTCCAAACTATTATTT [CACACA_site1817]	7.23
ATATGTATATATATTTGTACGTAAAATGAAATCTAA [XGTACX_site213]	7.66
ATTACAAAAAAAAAAAAAAAAAAAAAAAAAAAAAAA [CACACA_negctrl_site448]	6.02
TATACATAGATATATACACACATATATTTATATACA [CACACA_site6328]	6.5
GAAAAATGAAGAGAACAAAATTTTATGATATATATA [GTGCAC_negctrl_site231]	6.9
CCTTGAACCCCACTAACACACACACCCACGCTCAGA [CACACA_site8976]	6.71
TTTCATAAATAAATATGTACATAATTAATAATAAAT [XGTACX_site5882]	7.03
ATTTCACAGAAACACACACACAATATATTTCCTTTT [CACACA_site3904]	6.72
ATAAAATACCTATAAACACACATATAAACAGACATA [CACACA_site7213]	6.84
GTTATTGAAAAAATAGTGCAATATAACAAAGTAAAA	9.71
AAATAAAACAAACACACACACACATACACAAAAAAA [CACACA_site3849]	6.91
GGAATGTAGGGTTTTACCAAAATAAAAATAACCATA [XGTACX_negctrl_site492]	6.54

Sequence	gcPBM binding intensity (ln)
TATATATATATATGTACACACATATATACCTTTCAT [CACACA_site2679]	9.31
TATATATTTCGGTGTGCACACTTTTTATTTTTATCC [CACACA_site1726]	10.7
TAATTTCTTATGTATTGTACAAATAATATATGATAT [XGTACX_site611]	6.49
CTTATATATATATCATGTACTTATGTATTTAAGAAT [XGTACX_site3307]	6.48
ACAATAAAAATTTATGCATGTGAATTGAAAAAAAAA [TGCATGCA_site1037]	6.33
CTTTTATTAAAATTCACACACATAAACTTTTATAAA [CACACA_site7027]	6.21
AATATATACAATATATGTACATATATATACACATAT [XGTACX_site4190]	6.64
TATATATGTATATATATAAATATATATATATATATA [TGCATGCA_negctrl_site605]	8.97
GCATAAGAAAATAATTGTACAATTTACATACATAAA [XGTACX_site8286]	6.47
TACTCAAAAATTAATTAGCATAATATATATAAAAAT [GTGCAC_negctrl_site613]	6.58
TAATGAAATATACAGAGTACATTCTGTATATAGGAT [XGTACX_site7691]	6.22
TATAAATATATATACACACACACATTAATACATATA [CACACA_site3488]	6.78
ATAATATTTTCTTCTTATTGAATGCTTTAAATTTAC [CACACA_negctrl_site1273]	6.46
GGGAAATATTGAAACACACACGAACGCACGTATTTC [CACACA_site6258]	6.58
TTAAGAAGTTCTAAATGTACATACATAACCACGTTA [XGTACX_site7514]	6.29
ACAAATAAGTTTTGTAGTACTGTGTATATATATATA [XGTACX_site6901]	8.95
TTAAACCGTGGGAGCACACACACACCCCCACCCATA [CACACA_site331]	6.79
CACTTAACACAAGAGTGTACACATATATATATATAT [XGTACX_site686]	9.43
ATATTAGTAACACAGACACACAAAAAAAAAAAAAAA [CACACA_site2176]	6.38
TTGTACGCAAAAAAAAAAAAAAAAAAATTAAAATTT [TGCATGCA_negctrl_site586]	6.03
TTTTTCTCTTTAAGGTGTACAATAATACAGTAACCA [XGTACX_site300]	6.34
TTTTTTATTATCAAAACATGCATTTTTTAAATGGAA [TGCATGCA_site557]	6.25

Sequence	gcPBM binding intensity (ln)
AGGAAAATACCTTAATGTACATAGAAAAGTAACATT [XGTACX_site8011]	6.18
TTTTATTTATTATTTACACACACGTAGGTGTCCATA [CACACA_site430]	7.18
AATATGTATCCATACACACATACATTTTATTTGCAA [CACACA_site874]	7.08
TATCTTATTTTATCTCGTACATAAAATTAAAAAATT [XGTACX_site3636]	6.5
TTAAATTACTAATGTGCACACATACTAACGTTTAAA [CACACA_site3573]	11
AATACATAAAAATAAAAATAAAATATAACTAATATG [CACACA_negctrl_site186]	6.34
AAAACTATAATGAATAGTACATAAAAATGGATATAT [XGTACX_site6056]	6.63
TTATACATATATTTAACACACATTTTATAAAGTGCC [CACACA_site1314]	6.49
CATTTTATTTTAATATGTACTTAAAGAAAAAAAATT [XGTACX_site7670]	6.18
TTTTGACATTAATTACTATAGTGTTCTTATAAAATT [TGCATGCA_negctrl_site589]	6.81
TAATAATCCACAAGCACACACACACCCATATATATA [CACACA_site1267]	6.95
TTAAGGATCCACGATACACACATATCATTCAACAAA [CACACA_site1924]	6.31
ATATATAATATATGATGTACTTAATAATTTTTTTTT [XGTACX_site5715]	6.26
TATATACACATGCGCACACACAAGTGGGAAATTTGG [CACACA_site6930]	7.97
AATATTTGCCTATGTTGTACTGACATTTTTTTAAGT [XGTACX_site6836]	6.57
TTATATTTTTTAATTACACACAATTCTTATAAATAT [CACACA_site7870]	6.6
TATTATAACTAAAAAAATCACATAAAATACTTTATT [CACACA_negctrl_site2]	5.56
TTAACCTTTATATAATACGTATCATCCTCATATATA [CACACA_negctrl_site86]	7.17
ATATAAAATCAACAAAAAAAAAAAATATATATATAT [XGTACX_negctrl_site251]	9.1
TGTATATATTTGTGCACACCAAAGTTTGATTTTATT [CACACA_site1860]	11.4
TATTTATTATAAAAATTGTATAAAATAATAATGCTC [GTGCAC_negctrl_site456]	6.35
GTTATTAAAAACGGGTGTACACATATATAAATATAT [XGTACX_site1234]	7.35
